Out of some 370,000 compounds screened, about 1,100 (0.3%) were called active. About 1% were inconclusive and are not listed. Calls follow the shape of the dose curve; as a rule, active = well fitted activation curve with a large enough effect; inconclusive = small, poorly fitted or top-dose-only effect; inactive = flat fitted curve, though single readings scatter. The entries are a selection whose mix differs from that of the whole data set. Where a structure was tested more than once in an assay, its records may differ in their call.
target: Relaxin receptor 1 (Homo sapiens) (UniProt Q9HBX9); assay: qHTS Assay for Agonists of the Relaxin Receptor RXFP1; details: HEK293T-RXFP1 cAMP TR-FRET, 30 min; series mostly up to 57.5 µM; activation: at the top concentration; also: nearly all actives have a fitted effect of over 60% in size
Chain of UniProt Q9HBX9 (Q9HBX9 whole entry, looked up): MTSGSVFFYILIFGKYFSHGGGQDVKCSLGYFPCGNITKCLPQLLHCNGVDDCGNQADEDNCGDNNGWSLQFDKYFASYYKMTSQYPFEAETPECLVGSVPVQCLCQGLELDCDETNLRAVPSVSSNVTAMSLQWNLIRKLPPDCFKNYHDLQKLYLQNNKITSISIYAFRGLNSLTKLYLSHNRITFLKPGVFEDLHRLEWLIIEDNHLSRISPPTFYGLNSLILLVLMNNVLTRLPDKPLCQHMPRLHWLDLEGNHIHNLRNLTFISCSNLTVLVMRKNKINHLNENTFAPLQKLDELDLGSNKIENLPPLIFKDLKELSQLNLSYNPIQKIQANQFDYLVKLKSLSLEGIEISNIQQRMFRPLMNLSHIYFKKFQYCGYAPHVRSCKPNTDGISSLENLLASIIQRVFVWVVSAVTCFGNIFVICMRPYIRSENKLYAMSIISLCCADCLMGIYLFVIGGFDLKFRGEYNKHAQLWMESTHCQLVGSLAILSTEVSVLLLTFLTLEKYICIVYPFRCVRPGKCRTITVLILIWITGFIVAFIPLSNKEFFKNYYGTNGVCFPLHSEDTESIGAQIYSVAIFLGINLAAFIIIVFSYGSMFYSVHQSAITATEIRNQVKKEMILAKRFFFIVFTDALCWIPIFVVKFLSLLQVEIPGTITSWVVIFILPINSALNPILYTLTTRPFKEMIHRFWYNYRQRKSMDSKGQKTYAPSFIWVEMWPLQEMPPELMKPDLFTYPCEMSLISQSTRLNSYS
Excerpt: NIH Chemical Genomics Center [NCGC] NIH Molecular Libraries Probe Production Centers Network [MLPCN] MLPCN Grant: R03 MH085705-01A1 Assay Submitter (PI): Alexander Agoulnik NCGC Assay Overview: The relaxin hormone is involved in the variety of biological functions in normal tissues and diseases. The role of relaxin is well-established in female reproduction and parturition, mammary gland and endometrial development, maintenance of myometrial quiescence during pregnancy. Relaxin signaling through its G protein-coupled receptor (GPCR) RXFP1 results in ECM remodeling through regulation of collagen deposition, cell invasiveness, proliferation and overall tissue homeostasis. […] Recombinant human relaxin (rhRlx) is currently being tested in clinical trials as a protective agent in congestive heart failure, in treating severe preeclampsia, and as an anti-fibrotic agent in systemic sclerosis. Upon relaxin binding RXFP1 activation leads to the activation of adenylate cyclase (AC) via Gs. cAMP will activate PKA, which phosphorylates many signaling proteins. Thus, detection of cAMP increase is an easy and reliable indication of relaxin receptor activation. To screen for agonists of the relaxin receptor, a HEK293T cell line stably transfected with RXFP1 was used. RXFP1 activation was assayed by changes in cAMP levels as detected with a time-resolved fluorescence energy transfer (TR-FRET) cAMP detection kit.
NCGC Assay Protocol Summary: This is a cell-based assay for cAMP second messenger response to screen for agonists of the RXFP1 receptor. The assay was conducted in the presence of a PDE4 inhibitor (Ro 20174). The cells were lysed and the cAMP levels were measured with a TR-FRET cAMP kit. Presence of cAMP in the cell lysate disrupts binding between the cryptate-labeled anti-cAMP and d2-labeled cAMP pair, leading to a decrease in the TR-FRET signal. Data were normalized to the controls for basal activity (buffer only) and 100% activity (29 nM porcine relaxin). The EC50 values were determined from concentration-response data modeled with the standard Hill equation 1536-well assay protocol for the HEK293 RXFP1 cAMP assay: (1) Add 3 ul HEK293 RXFP1 cell culture. 2000 cells/well in DMEM/F12, 10% FBS, 1x Pen/Strep (dispensed offline with MultiDrop Combi). (2) Incubate 16-24 hr at 37C, 5% CO2. (3) Add 1 ul 400uM Ro20174 in DPBS, 0.05% BSA, 0.005% Tween 20. (3) Add 23 nl compounds in DMSO solution. Final concentration was 0.5 - 58 uM. (4) Incubate 30 min at 37C, 5% CO2. (5) Add 1 ul cAMP-d2 in lysis buffer (HTRF cAMP HiRange kit, CisBio). (6) Add 1 ul anti-cAMP antibody-cryptate in lysis buffer (HTRF cAMP HiRange kit, CisBio). (7) Incubate 30 min at room temperature. (6) Detect the assay plate in a ViewLux plate reader (PerkinElmer) with Ex=320 nm, Em1=615 nm and Em2=665 nm. Keywords: relaxin, RXFP1, RXFP2, G-protein coupled receptor, cAMP, agonist, high throughput screening, MLSMR, MLSCN, NIH Roadmap, qHTS and NCGC
% is scaled to controls: 0 for no effect and ±100 for the full control effect; potency is read from the fitted curve at half-maximal effect.

Row | SMILES | activation | Potency
1 | CSc1nc(O)c(Nc2cccc(Cl)c2)c(=O)[nH]1 | inactive: -40.7% | –
2 | Cc1nn(CC(=O)N2CCN(c3cccc(C(F)(F)F)c3)CC2)c(=O)c2cccn12 | – | active: 35.5 µM
3 | Cc1ccc(S(=O)(=O)NC(=O)Nc2ccc(N(C)C)cc2)cc1 | inactive: -34.9% | –
4 | O=C(O)CCNc1ccc(NCCC(=O)O)c2c1C(=O)c1ccccc1C2=O | inactive: -115% | –
5 | O=C(Oc1ccccc1)Oc1ccc2c(c1)oc(=O)c1ccccc12 | – | active: 7.94 µM
6 | CCCn1c(=N)c(C(=O)NC2CCCC2)cc2c(=O)n3cccc(C)c3nc21 | inactive: 11.9% | –
7 | COC(=O)c1sc(N2C(=O)C(O)=C(C(=O)c3ccc(C)o3)C2c2cccs2)nc1C (stereo unspecified) | – | active: 12.6 µM
8 | O=C(Nc1cccc2ccccc12)C(=O)C1C(=O)Nc2ccccc21 (stereo unspecified) | inactive: -35.6% | –
9 | Cc1ccc(-c2csc(/C=C3\SC(C)C(=O)N3CC(=O)Nc3ccccc3F)n2)cc1 (stereo unspecified) | inactive: -33.4% | –
10 | CCN(CC)c1ccc2c(-c3ccc(S(=O)(=O)O)cc3S(=O)(=O)[O-])c3ccc(=[N+](CC)CC)cc-3oc2c1 | – | active: 28.2 µM
11 | CCOC(=O)c1c(NC(=O)c2ccc(S(=O)(=O)N3CCC(C)CC3)cc2)sc2c1CCN(C(C)C)C2 | inactive: -43.1% | –
12 | COc1ccc2nc3sc(C(=O)NCCc4ccc(Cl)cc4)cc3cc2c1 | inactive: -41.5% | –
13 | Cc1cccc(CNC(=O)c2ccc3c(c2)N(C)CCS3)c1 | inactive: 14.6% | –
14 | CCN(CC)S(=O)(=O)c1ccc(Cl)c(NC(=O)CSc2cccc[n+]2[O-])c1 | – | active: 25.1 µM
15 | CCOc1ccc(NC(=O)c2sc3nc4n(c(=O)c3c2C)CCC4)cc1 | inactive: 0.506% | –
16 | CCOC(=O)CCc1c(C)nc2c(c(C)nn2-c2ccc(C)cc2)c1C | inactive: -18.9% | –
17 | CC1=C/C(=C(\c2cc(C)c(O)c(Br)c2)c2ccccc2S(=O)(=O)O)C=C(Br)C1=O | inactive: -52.3% | –
18 | O=c1ccc2[n+]([O-])c3ccc(O)cc3oc-2c1 | inactive: -35.9% | –
19 | O=C(Cn1c(=O)c2cccn2c2ccccc21)NCCc1ccccc1 | inactive: -3.61% | –
20 | Cc1ccc(C)c(NC(=O)C2CCCN(S(=O)(=O)c3ccc4[nH]c(=O)ccc4c3)C2)c1 (stereo unspecified) | inactive: 7.71% | –
21 | CCCCC1=CC2=C(c3ccco3)C(=O)C(C)(OC(=O)c3ccc(OC)cc3)C(=O)C2=CN1CC(C)C (stereo unspecified) | – | active: 15.8 µM
22 | CN1CCc2c(sc(NC(=O)CSc3ccc(F)cc3)c2-c2nc3ccccc3s2)C1 | inactive: -30.3% | –
23 | Cc1cccc2cc(C#N)c(SCC(=O)NCc3cccs3)nc12 | – | active: 12.6 µM
24 | COc1ccc(CNC(=O)CN2C(=O)NC(C)(c3cccc(Br)c3)C2=O)cc1 (stereo unspecified) | inactive: -30.1% | –
25 | CCc1ccc(NC(=O)Cn2ccn(-c3cccc(Cl)c3)c(=O)c2=O)cc1 | inactive: 4.43% | –
26 | NS(=O)(=O)c1ccc(Nc2ccc([N+](=O)[O-])c3nonc23)cc1 | inactive: -35.2% | –

Row | SMILES | activation | Potency
27 | CCCC(=O)Nc1ncnc2c1ncn2[C@@H]1O[C@@H]2OP(=O)(O)OC[C@H]2[C@H]1OC(=O)CCC | – | active: 0.631 µM
28 | COc1ccccc1CNC(=O)c1nn(-c2ccc(C)cc2)c(=O)c2c1c1ccccc1n2C | inactive: 9.29% | –
29 | COc1cc2nc(SCC(=O)Nc3cccc(C)c3)n3nc(CCn4c(C)nc5ccccc54)nc3c2cc1OC | – | active: 17.8 µM
30 | COc1cccc(C(=O)Nc2nnc(S(=O)(=O)N3CCCC3)s2)c1 | inactive: -2.66% | –
31 | Nc1ncnc2c1ncn2[C@@H]1O[C@H](CO)[C@@H](O)[C@H]1O | inactive: 26.3% | –
32 | CCCN(CCC)C(=O)Cn1c(=O)n(CCCCCC(=O)Nc2ccccc2)c(=O)c2sccc21 | inactive: 22.5% | –
33 | Cc1noc(C(F)(F)F)c1C(=O)NNC(=O)c1cccc(C(F)(F)F)c1 | inactive: -52.4% | –
34 | Cc1nn(CCCC(=O)NCc2ccccc2)c(=O)c2nccn12 | – | active: 28.2 µM
35 | O=C1C=C(Nc2ccccc2C(=O)O)c2ccccc2C1=O | inactive: -67.9% | –
36 | O=C1OC2(c3ccccc31)c1cc(I)c(O)c(I)c1Oc1c2cc(I)c(O)c1I | inactive: -35% | –
37 | Cn1c2ccc(F)cc2c2nnc(SCCN3CCCCC3)nc21 | inactive: 27.9% | –
38 | N#CCC(=O)NNc1c([N+](=O)[O-])cc(C(F)(F)F)cc1[N+](=O)[O-] | inactive: -41.6% | –
39 | Cc1ccc(NC(=O)Cn2cc(C(=O)C3CC3)c3ccccc32)cc1 | inactive: 10% | –
40 | CCOc1ccc(NC(=O)CSc2ncc3c(n2)-c2ccc(Cl)cc2N(Cc2ccccc2)S3(=O)=O)cc1 | – | active: 11.2 µM
41 | CCOC(=O)c1c(NC(=O)c2ccc(S(=O)(=O)N3CCC(C)CC3)cc2)sc2c1CCN(C)C2 | inactive: -35.8% | –
42 | CCOC(=O)CNC(=O)c1sc(NC(=O)/C=C/c2ccccc2)nc1C | inactive: -63% | –
43 | Cc1nc(N)sc1N=Nc1c(C)n(C)n(-c2ccccc2)c1=O | inactive: -59.7% | –
44 | Cn1c(=O)c2c(ncn2CC(=O)N/N=C/C=C/c2ccccc2[N+](=O)[O-])n(C)c1=O | inactive: 22.3% | –
45 | Cc1cc(C)c(NC(=O)CSc2ccc(-c3ccccn3)nn2)c(C)c1 | inactive: 28.1% | –
46 | CC1(C)Cc2nc3sc4c(SCC(=O)NC(c5ccccc5)c5ccccc5)ncnc4c3cc2CO1 | – | active: 3.16 µM
47 | Nc1c(S(=O)(=O)O)cc(NC(=O)c2ccccc2)c2c1C(=O)c1ccccc1C2=O | inactive: -46.4% | –
48 | CCOc1ccc(C(=O)Nc2ccc3oc(-c4cccnc4)nc3c2)cc1 | inactive: -41.7% | –
49 | c1ccc(-c2ccc3c(c2)NCCN3)cc1 | inactive: -51.3% | –
50 | Cc1ccc2nc(NCc3ccc(F)cc3)c3nncn3c2c1 | inactive: 20.1% | –
51 | Cc1cc(=O)n2nc(N3CCC(C(=O)NCc4ccc(Cl)cc4)CC3)sc2n1 | inactive: 29.5% | –
52 | CCOc1ncccc1C(=O)Nc1cccc(-c2nc3cccnc3s2)c1 | inactive: -45.2% | –

Row | SMILES | activation | Potency
53 | Cc1cc2c(cc3c(SCc4cccc(Cl)c4)nnc(C)n32)o1 | – | active: 22.4 µM
54 | O=C(Nc1cccnc1Cl)c1cc(-c2ccc(Cl)cc2)on1 | inactive: 4.44% | –
55 | Cn1cc(CCCC(=O)NCc2ccc(F)cc2)c2ccccc21 | inactive: 5.78% | –
56 | Cn1c(=O)c2c(nc(Cc3ccc(N)cc3)n2C)n(C)c1=O | – | active: 15.8 µM
57 | CCCCN(C)CCNC(=O)c1nn(-c2ccc(OC)cc2)c(=O)c2c1c1ccccc1n2C | inactive: 6.83% | –
58 | COc1ccc(-c2nnn3c2nc(NCc2ccccc2)c2ccccc23)cc1 | inactive: 11.6% | –
59 | COCCCn1c(=N)c(C(=O)NC2CCCCC2)cc2c(=O)n3ccccc3nc21 | inactive: 5.77% | –
60 | CC1=C(C#N)C(NC(=O)c2ccccc2Cl)(C(F)(F)F)C(=O)N1 (stereo unspecified) | inactive: -0.224% | –
61 | COc1ccc(C[C@H]2c3cc(O)c(OC)cc3CC[N+]2(C)[O-])cc1O (stereo partly specified) | inactive: -42.3% | –
62 | CCOC(=O)c1cnc2c(Cl)c(Cl)ccc2c1NCCN1CCOCC1 | inactive: 8.79% | –
63 | COc1ccc(C)cc1NC(=O)c1ccc2c(=O)n3c(nc2c1)CCCCC3 | inactive: -0.513% | –
64 | CN1c2cc(Cl)ccc2-c2nc(SCC(=O)Nc3ccc(F)cc3F)ncc2S1(=O)=O | – | active: 31.6 µM
65 | CCCCOc1cccc(C2/C(=C(\O)c3ccc4c(c3)OCCO4)C(=O)C(=O)N2CCN2CCOCC2)c1 (stereo unspecified) | – | active: 25.1 µM
66 | NC(=O)c1cc(-c2ccccc2)nc2ccc(Br)cc12 | inactive: -101% | –
67 | CCN1/C(=C2\C(=O)N(C)C(=S)N2c2ccccc2)C=Cc2ccccc21 | inactive: -41.2% | –
68 | Cc1cccc(N(C)C(=O)c2cc3c(=O)[nH]c4ccc(C)cc4c3s2)c1 | inactive: -30.5% | –
69 | Cc1ccc(-c2cc(C(=O)NCc3cnn(C)c3C)c3cc(Br)ccc3n2)cc1 | inactive: 24.8% | –
70 | COc1cc(O)c(C(CCN2CCOCC2)c2ccc(N(C)C)cc2)c(OC)c1 (stereo unspecified) | inactive: -36.5% | –
71 | Cc1cccc(C)c1NC(=O)C(NS(=O)(=O)c1cccs1)c1ccccc1 (stereo unspecified) | inactive: 0.638% | –
72 | COc1cccc(N2CCN(C(=O)c3cc4c(s3)-c3ccccc3OC4)CC2)c1 | inactive: 0.725% | –
73 | CCOc1ccc(C(=O)Nc2ccc3oc(-c4ccc5ccccc5c4)nc3c2)cc1 | inactive: -36.2% | –
74 | Cc1ccc(/C=C2\SC(=S)N(CCC(=O)NNS(=O)(=O)c3ccccc3)C2=O)cc1 | inactive: -139% | –
75 | Cc1ccc(N2C(=O)CS/C2=N\C(=S)Nc2ccccc2)cc1 | inactive: -51.9% | –
76 | CN(Cc1ccc(F)cc1)S(=O)(=O)c1nnc(NC(=O)c2ccccc2Br)s1 | inactive: 21.7% | –
